Laboratory results from PubChem BioAssay AID485344 (National Center for Advancing Translational Sciences (NCATS), 2010).
Hit rate of the full screen: of about 340,000 compounds, about 6,900 (2%) were called active. No stated cut-off is given here; in the data, active means inhibition above about 30%; inactive means below that, where a call was filed. Only a part is listed here, and it is no random draw. Where no call is shown, the source filed none.

Target: D(2) dopamine receptor (Homo sapiens) (UniProt P14416)
Assay: HTS Assay for Allosteric Antagonists of the Human D2 Dopamine Receptor: Primary Screen for Antagonists; further: 0% is about no effect
Conditions: HEK293 TREx D2 cells, calcium flux, dopamine EC80; at 10 µM; stronger effect = higher value
How it was run: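 Tetracycline-induced HEK293 TREx cells expressing D2 receptor forced-coupled to calcium signalling, loaded with no-wash calcium dye. Compounds added and calcium flux read 180 s, then dopamine added at EC80 and read a further 180 s.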

Chain of UniProt P14416 (P14416 whole entry, looked up): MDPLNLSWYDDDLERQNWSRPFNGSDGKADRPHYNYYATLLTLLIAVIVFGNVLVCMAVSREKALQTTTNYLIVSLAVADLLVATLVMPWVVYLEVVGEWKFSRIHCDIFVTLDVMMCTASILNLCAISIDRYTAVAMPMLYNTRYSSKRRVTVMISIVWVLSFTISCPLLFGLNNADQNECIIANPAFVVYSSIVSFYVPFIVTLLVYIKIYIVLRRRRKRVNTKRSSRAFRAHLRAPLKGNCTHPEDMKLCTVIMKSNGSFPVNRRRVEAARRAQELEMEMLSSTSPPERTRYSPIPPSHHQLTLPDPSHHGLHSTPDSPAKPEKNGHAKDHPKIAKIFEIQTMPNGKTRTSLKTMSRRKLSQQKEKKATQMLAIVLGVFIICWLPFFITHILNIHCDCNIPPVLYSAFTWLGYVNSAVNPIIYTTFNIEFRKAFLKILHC

Structure (SMILES)	inhibition
COC(=O)c1cc2oc(C)cc2n1CC(=O)Nc1cc(Cl)ccc1OC	-5.8%
CCNc1oc(-c2ccc(COc3ccc(Cl)cc3)o2)nc1C#N	4.92%
CCCCOc1ccc(CNC(=O)Cc2ccc(NC(=O)N3CCSc4ncccc43)cc2)cc1	0.226%
O=C(CSC1=Nc2ccccc2N=C(c2ccc(F)cc2)C1)NCc1ccccc1Cl	-9.74%
Cn1c(CN2CCCC2)nc2cc(NC(=O)COc3ccc(Cl)cc3)ccc21	active: 41%
COCCn1c(=O)[nH]c2cc(C(=O)NCCN3CCN(c4ccccc4F)CC3)ccc2c1=O	active: 96.4%
Cc1nn(-c2ccc(N3CCOCC3)nn2)c(C)c1CCC(=O)NCc1ccccc1F	2.71%
CCOc1ccc(CNC(=O)c2sc3ncnc(N(C)C4CCCCC4)c3c2C)cc1	-24.1%
NC(=O)c1ccccc1NC(=O)Cn1nc(Cc2cccnc2)c2ccccc2c1=O	1.5%
COC(=O)c1cccc(Nc2nn3c(=O)c4cc5c(cc4nc3s2)OCO5)c1	1.04%
COc1ccc(-c2[nH]c3ccccc3c2SCCNC(=O)c2ccc(S(=O)(=O)N(C)C)cc2)cc1	4.56%
COc1ccc(S(=O)(=O)NCC(c2ccc(N(C)C)cc2)N2CCOCC2)cc1 (stereo unspecified)	-9.92%
Cc1ccc2[nH]c3c(=O)n(CC(=O)NC(C)C)ncc3c2c1	3.51%
COc1ccc(CNC(=O)CSc2ncc(S(=O)(=O)c3ccc(Br)cc3)c(=O)[nH]2)cc1	5.73%
CC(C)N1CCc2nc(SCC(=O)Nc3cccc(F)c3)[nH]c(=O)c2C1	-2.28%
COc1ccc(-c2nc3scc(CCNC(=O)c4cc(OC)cc(OC)c4)n3n2)cc1	-0.987%
O=C(O)CSCCc1ccccn1	active: 52.8%
CCOc1ccc(C(=O)OCc2cc(=O)n3cc(C)sc3n2)cc1	6.95%
COc1ccc2c(c1)C=C(C(=O)NCc1cc(Br)ccc1OC)CO2	0.0738%
CCCCCn1cc2c(c1-c1ccc(Cl)cc1)c(=O)n(C)c(=O)n2C	-10.8%
Cc1cccc(C(=O)Nc2ccc3oc(-c4ccncc4)nc3c2)c1	2.22%
CCc1ccccc1NC(=O)c1sc(-n2nc(C)c(Cc3ccc4c(c3)OCO4)c2C)nc1C	5.02%
COc1ccccc1NC(=O)c1sc2ncn(Cc3ccccc3Cl)c(=O)c2c1C	0.78%
CCOC(=O)C1CCCN(S(=O)(=O)c2ccc3[nH]c(=O)oc3c2)C1 (stereo unspecified)	-14.8%

Structure (SMILES)	inhibition
COc1ccc(C)cc1-n1c(-c2ccc(C)cc2)cc2c1CC(C)(C)CC2=O	-10.8%
O=C(Cn1c2ncccc2c(=O)n1-c1ccccc1)Nc1ccc(Cl)cc1C(F)(F)F	1.53%
COCc1cc(C)nc2sc3c(c12)NC(c1ccc(O)cc1)N(c1ccc(C)cc1)C3=O (stereo unspecified)	19.1%
O=C(OCc1cccc(C(F)(F)F)c1)c1ccc(-c2nnn(Cc3ccc(F)cc3)n2)cc1	-5.84%
Cc1nn(C(=O)c2ccccc2)c(C)c1S(=O)(=O)N1CCCCCC1	12.5%
CCn1c(=N)c(C(=O)NC2CCCC2)cc2c(=O)n3ccccc3nc21	10%
COc1ccc(-n2c(/C=C/c3c(C)[nH]c4ccccc34)nc3ccccc3c2=O)cc1	2.16%
COc1cccc(CNc2nccn(-c3ccc(OC)c(OC)c3)c2=O)c1	4.25%
Cc1nn(C)c2c1c(-c1ccccc1)cc(=O)n2Cc1ccc(Cl)cc1	1.47%
COc1ccccc1C(=O)Nc1ccc(OCc2cc(=O)n3ccc(C)cc3n2)cc1	3.53%
CCOc1ccc(S(=O)(=O)N2CCC(N3CCN(Cc4ccc(C)cc4)C(=O)C3=O)CC2)cc1	-0.678%
COc1ccc(CNC(=O)c2cnn(-c3ccc(C)cc3)c2-n2cccc2)cc1OC	9.63%
CCOc1ccc(CNC(=O)C2CCN(S(=O)(=O)c3cn(C)cn3)CC2)cc1OC	10%
Cc1ccc(CNC(=O)c2cc(C3CC3)nc3c2cnn3C(C)C)cc1	active: 39.3%
COC(=O)C1=CN(CC2CCCO2)C=C(C(=O)OC)C1c1ccccc1C(F)(F)F (stereo unspecified)	active: 43.4%
COc1cccc(CN2C(=O)CN(C3CCCCC3)C(=O)C2c2ccc(OC)c(OC)c2)c1 (stereo unspecified)	-16.6%
COc1ccc2c(c1)c1c(c(=O)n(-c3ccccc3C)c(=O)n1CC(=O)N1CCCC1)n2C	4.89%
COc1ccc(C2C=C(c3ccccc3)Nc3nc(NC(=O)/C=C/c4ccc(F)cc4)nn32)cc1 (stereo unspecified)	-1.61%
CCC(C)Sc1c(C(C)C)cnc2c1c(=O)n(C)c(=O)n2C (stereo unspecified)	-5.93%
COc1ccc(-c2cc(C(F)(F)F)c(C#N)c(SCC(=O)Nc3ccccc3F)n2)cc1	1.1%
COc1ccc(NC(=O)CSc2oc(-c3cccs3)nc2S(=O)(=O)c2ccc(Br)cc2)c(OC)c1	5.26%
Cc1nc2ccn(Cc3cccs3)c(=O)c2cc1C(=O)NCc1ccccc1	17.3%
Cc1ccc(Nc2sc(C(=O)c3ccccc3)c(N)c2C(=O)NC(C)C)cc1	-20.1%
CCc1nonc1NC(=O)c1oc2cc(C)c(Cl)cc2c1C	-8.54%

Structure (SMILES)	inhibition
COc1ccccc1-c1cc(C(=O)NCc2ccc(F)cc2)no1	active: 74.1%
COc1ccc(Cn2ccc3nc(C)c(C(=O)N4CCN(c5ccccc5)CC4)cc3c2=O)cc1	-3.13%
O=C(c1cn(CCOc2ccccc2F)c2ccccc12)C1CCCCC1	-8.23%
COc1ccc(C(=O)c2oc3ccccc3c2NC(=O)c2ccc(F)cc2)cc1	-8.57%
CCOC(=O)c1ccc(NC(=O)c2cn(-c3ccccc3)nc2-c2ccc(Br)cc2)cc1	-1.01%
O=C(NC1CC(=O)N(c2cccc(F)c2)C1)c1ccc(S(=O)(=O)N2CCOCC2)cc1 (stereo unspecified)	-0.285%
COc1ccccc1CN1COc2ccc3c(C)cc(=O)oc3c2C1	-6.18%
Cc1ccc(NC(=O)Cn2c(=O)oc3ccccc32)cc1Cl	-26.4%
CCOC(=O)c1ccc(NC(=O)CSc2ccc(-c3sc(C)nc3C)nn2)cc1	-2.94%
CCn1nc(C)c(CN2CCC(C(=O)Nc3cccc(-c4cccc(F)c4)c3)CC2)c1C	active: 37.8%
COc1ccccc1N1CCN(C(=O)c2sc3nc4n(c(=O)c3c2C)CCC4)CC1	20.3%
CCOc1ccc(C(=O)c2cn(Cc3ccccc3OC)c3cc4c(cc3c2=O)OCCO4)cc1	-3.5%
CCC(=O)N1CCc2cc(S(=O)(=O)CCC(=O)Nc3ccc(Cl)c(C(F)(F)F)c3)ccc21	1.97%
CCCCN(CC)CCNC(=O)c1cn(CCOC)c(=O)c2c1c1ccccc1n2C	14.4%
COc1cccc(CC2(CO)CCCN(Cc3ccc(CN4CCCCC4)s3)C2)c1 (stereo unspecified)	active: 39.6%
COc1ccc(CNC(=O)C2CCN(Cc3nc(-c4ccc(OC)c(OC)c4)oc3C)CC2)cc1	-5.04%
Cc1ccc(-c2cc(C(F)(F)F)n3nc(-c4ccc(Cl)cc4)cc3n2)cc1	-4.08%
COc1cccc(OC)c1C(=O)Nc1nnc(C)s1	-18.7%
Cc1ccc(N(CC(C)C)S(=O)(=O)c2nnc(NC(=O)c3ccco3)s2)cc1	1.61%
O=C(COC(=O)C(Cc1c[nH]c2ccccc12)NC(=O)c1ccc(Br)cc1)c1ccc(Cl)cc1 (stereo unspecified)	10.4%
Cc1ccc2oc(C(=O)N(Cc3cccc(F)c3)C3CCS(=O)(=O)C3)c(C)c2c1 (stereo unspecified)	15.1%
CC(C)CCC(CCN1CCOCC1)c1ccc2c(c1)OCO2 (stereo unspecified)	active: 30.9%
O=C(NCc1ccccc1Cl)C1CCC(CNS(=O)(=O)c2ccc(Cl)cc2)CC1 (stereo unspecified)	6.96%
COc1cccc(NC(=O)N2CCC(n3c(C)nc4cccnc43)CC2)c1	3.54%

Structure (SMILES)	inhibition
COc1cccc(Cn2c(=O)n(-c3ccc(C)c(F)c3)c(=O)c3sc4ccccc4c32)c1	-6.71%
O=C(CCc1cn(Cc2ccccc2F)c2ccccc12)NCc1ccc(Cl)cc1	18.4%
CCOC(=O)c1nc(Nc2ccc(C(=O)OCC(C)C)cc2)c2ccccc2n1	24.2%
CC1CCC(NC(=O)CCCn2sc3ccccc3c2=O)CC1 (stereo unspecified)	active: 39%
CCOC(=O)c1cc(-c2ccccc2)n(CC(=O)Nc2ccc(OC)cc2OC)c1C	0.285%
CSc1cccc(-c2nnc(NC(=O)c3ccc4c(c3)OCCO4)o2)c1	-2.5%
CC(C)CC(=O)NCc1nc2cccnc2n1Cc1ccccc1	6.18%
CC1=C(C(=O)Nc2ccc(C)cc2C)C(c2ccc(Cl)cc2)n2nc(C(=O)OC(C)C)nc2N1 (stereo unspecified)	-7.8%
CCc1ccc(NC(=O)c2cc3sc(Cl)cc3n2C)cc1	4.66%
O=C(Cn1cnc(S(=O)(=O)N2CCCC2)c1)Nc1ccc(OC(F)(F)F)cc1	-5.57%
COc1ccc(CN2COc3ccc4c(-c5ccccc5)cc(=O)oc4c3C2)cc1	22.5%
CCOC(=O)c1c(C)[nH]c(C)c1S(=O)(=O)N1CCCC(C(=O)Nc2ccc(OC)c(Cl)c2)C1 (stereo unspecified)	-0.607%
O=C(Cn1ncc2c3ccccc3n(Cc3ccccc3F)c2c1=O)NCCc1ccc(Cl)cc1	6.07%
[N-]=C=C1C(=O)NC(=O)C([n+]2ccc(-c3ccncc3)cc2)C1c1ccccc1C(F)(F)F (stereo unspecified)	active: 35.5%
COc1cccc(CNC(=O)CSc2c3c(nc4ccc(Cl)cc24)CCCC3)c1OC	9.21%
CCc1cccc(NC(=O)Cn2c(=O)n(CCc3ccc(OC)c(OC)c3)c(=O)c3ccccc32)c1	-2.37%
Cc1nn(CC(=O)NCCCc2ccccc2)c(=O)c2cc3occc3n12	active: 32.4%
COCc1cc(C)n(CC(=O)N2CCCC2)c(=O)c1C#N	active: 30.8%
O=C(Cn1ncc2c(=O)oc3ccccc3c21)NCc1ccccc1Cl	5.62%
COc1ccc(CC(=O)NCc2ccc3c(c2)CCN3C(=O)c2ccc(C)cc2)cc1OC	-8.51%
C1COC(NC(C2CC2)C2CC2)=N1	active: 36.2%
Cc1ccc(CNC(=O)CN(c2ccc(Cl)cc2Cl)S(=O)(=O)c2ccccc2)cc1	4.41%
O=C(/C=C/c1ccco1)NCC1OCCc2ccccc21 (stereo unspecified)	active: 30.8%
CN(C)c1ccc(CNC(=O)CN(C)S(=O)(=O)c2ccc3c(c2)c(=O)n(C)c(=O)n3C)cc1	21.6%
